From publication PMC4336329 (PLoS ONE, 2015)
Screen size: about 310,000 compounds; about 14,000 (4.5%) showed an effect of 50% or more. The effect is printed as a negative number. Some of the results follow.

What follows are compounds tested against human ether-à-go-go-related gene (hERG) potassium channel (human, UniProt Q12809) (assay: primary screen, population patch clamp on CHO cells stably expressing hERG).
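Note: peak tail current of the secondary pulse compared with the same well before compound.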

human ether-à-go-go-related gene (hERG) potassium channel, sequence (Q12809 whole entry, looked up): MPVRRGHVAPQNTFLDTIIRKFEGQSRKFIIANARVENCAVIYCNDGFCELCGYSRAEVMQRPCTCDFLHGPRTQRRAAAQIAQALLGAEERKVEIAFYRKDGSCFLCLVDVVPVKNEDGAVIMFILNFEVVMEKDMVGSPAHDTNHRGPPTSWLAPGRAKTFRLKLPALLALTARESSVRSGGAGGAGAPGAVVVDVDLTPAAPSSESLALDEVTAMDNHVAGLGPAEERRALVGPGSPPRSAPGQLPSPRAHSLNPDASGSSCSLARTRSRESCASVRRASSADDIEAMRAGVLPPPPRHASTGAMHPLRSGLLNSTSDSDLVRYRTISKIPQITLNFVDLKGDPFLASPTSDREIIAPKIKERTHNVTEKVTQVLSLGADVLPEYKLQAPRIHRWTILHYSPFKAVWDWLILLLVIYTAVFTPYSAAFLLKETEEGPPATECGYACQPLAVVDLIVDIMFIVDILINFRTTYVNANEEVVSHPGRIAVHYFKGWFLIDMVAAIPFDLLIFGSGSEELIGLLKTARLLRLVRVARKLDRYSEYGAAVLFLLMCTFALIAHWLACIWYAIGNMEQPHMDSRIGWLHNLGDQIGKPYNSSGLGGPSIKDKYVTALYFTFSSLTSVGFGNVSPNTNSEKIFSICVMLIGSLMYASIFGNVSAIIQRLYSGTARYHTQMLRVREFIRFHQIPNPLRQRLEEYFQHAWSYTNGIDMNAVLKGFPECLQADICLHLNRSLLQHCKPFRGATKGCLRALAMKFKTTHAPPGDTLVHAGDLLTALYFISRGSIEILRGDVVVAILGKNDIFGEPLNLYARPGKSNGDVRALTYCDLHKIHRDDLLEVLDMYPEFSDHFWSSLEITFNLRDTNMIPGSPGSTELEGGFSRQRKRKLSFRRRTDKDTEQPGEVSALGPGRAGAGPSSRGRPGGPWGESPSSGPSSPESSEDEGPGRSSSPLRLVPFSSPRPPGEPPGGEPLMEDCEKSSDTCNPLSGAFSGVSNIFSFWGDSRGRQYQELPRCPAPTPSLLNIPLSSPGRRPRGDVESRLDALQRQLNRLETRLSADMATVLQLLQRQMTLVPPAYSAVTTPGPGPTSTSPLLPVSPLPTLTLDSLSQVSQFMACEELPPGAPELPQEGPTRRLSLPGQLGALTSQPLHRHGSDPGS

First: Cc1cccc(C)c1OC(=O)C(c1ccccc1)c1ccccc1
Second: CN(C)Cc1ccccc1COc1ccccc1.O=C(O)/C=C\C(=O)O
The “hERG current change (%, negative = inhibition) at 10uM” value of the first is higher: 6.14% for the first, 0.278% for the second.

Going from C=C(C)COc1ccc(-c2[nH]ncc2Oc2ccc(OC)cc2)c(O)c1 to COC(=O)c1cc(COC(=O)COc2ccc(C)c(C)c2)oc1C, the “hERG current change (%, negative = inhibition) at 10uM” value rises from -14.9% to 20.7%.

Going from CN1C(=O)C(Cc2cnc[nH]2)NC1=S (centres unmarked) to Cc1cc(=S)n(-c2ccccc2)n1C, the “hERG current change (%, negative = inhibition) at 10uM” value falls from 30.8% to 19.1%.

First: CCOC(=O)C(=CNc1ccc(C)cc1C)C(=O)OCC
Second: CCOc1ccc(N2CC(C(=O)NCC(=O)Nc3ccc(F)c(F)c3F)CC2=O)cc1 (centres unmarked)
The “hERG current change (%, negative = inhibition) at 10uM” value of the first is higher: 6.25% for the first, -17.7% for the second.

First: O=C(NC1CCCCC1)C(c1ccccc1)N1CCOCC1 (centres unmarked)
Second: CCOc1ccccc1N1CCN(C(=O)c2ccccc2SCC(=O)N2CCCC2)CC1
The “hERG current change (%, negative = inhibition) at 10uM” value of the first is lower: 9.63% for the first, 10.6% for the second.

Going from CCCC(=O)N(c1ccc(F)cc1)C1C=CS(=O)(=O)C1 (centres unmarked) to CC(=O)NCc1ccc(C(=O)CCl)cc1, the “hERG current change (%, negative = inhibition) at 10uM” value falls from 11.7% to 7.59%.

Going from CN/C=C(/Cl)P(=O)(OC(C)C)OC(C)C to CC(C)C(C)N(Cc1cccc(C(=O)O)c1)C(=O)c1ccc2ccccc2n1 (centres unmarked), the “hERG current change (%, negative = inhibition) at 10uM” value rises from 11.1% to 20.6%.

Compared with CN1CCCN(CC(O)COCc2cccs2)CC1 (centres unmarked), CCOC(=O)N1CCN(CC(O)COC2CC(C)CC(C)(C)C2)CC1.Cl (centres unmarked) is higher in “hERG current change (%, negative = inhibition) at 10uM” value: -2.94% for the first, -1.94% for the second.

First: C=CCOc1ccc(/C=N/NC(=O)C(=O)N2CCCCCC2)cc1OC
Second: COc1ccc(C2(C)NC(=O)N(CC(=O)NCCC3=CCCCC3)C2=O)cc1OC (centres unmarked)
The “hERG current change (%, negative = inhibition) at 10uM” value of the first is higher: 16.5% for the first, 13.1% for the second.

Going from Cc1cccc(OCC(=O)NN2C(=O)C3C4C=CC(O4)C3C2=O)c1 (centres unmarked) to CC(=O)Oc1cccc(N2C(=O)C3CC=CCC3C2=O)c1 (centres unmarked), the “hERG current change (%, negative = inhibition) at 10uM” value falls from 13.9% to 7.23%.

Going from c1ccc2oc(-c3[nH]ncc3CN3CCC(N4CCSCC4)CC3)cc2c1 to Fc1cccc(CN2CCN(Cc3nc(-c4cnccn4)no3)CC2)c1, the “hERG current change (%, negative = inhibition) at 10uM” value rises from -61.9% to 6.88%.

Going from COc1ccc(CCN2CC(C(=O)NCCc3cnn(C)c3)CCC2=O)cc1 (centres unmarked) to COc1ccc(NS(=O)(=O)c2cc(C(=O)N3CCC3)ccc2C)cc1, the “hERG current change (%, negative = inhibition) at 10uM” value falls from 17.9% to -13%.

Compared with Cc1ccc(C)c(S(=O)(=O)NNC(=O)c2sc(NS(=O)(=O)c3ccccc3)nc2C)c1, CSc1nc2ccc3nc(NC(=O)c4ccccc4)sc3c2s1 is lower in “hERG current change (%, negative = inhibition) at 10uM” value: 14.2% for the first, 11.1% for the second.

Going from O=[N+]([O-])c1ccc(N/N=C2\CC3CC=CC23)cc1 (centres unmarked) to Cc1ccc(S(=O)(=O)NC2CCOC(C)(C)C2)cc1 (centres unmarked), the “hERG current change (%, negative = inhibition) at 10uM” value rises from -25.4% to 8.84%.

First: O=C(O)CCC(=O)Nc1nnc(C(F)(F)F)s1
Second: Nc1nnc(SCC(=O)Nc2ccccc2)s1
The “hERG current change (%, negative = inhibition) at 10uM” value of the first is lower: -2.04% for the first, 13.6% for the second.

Compared with C[C@H](NC(=O)c1nc[nH]c1C(=O)NCCCCCNC(=O)OC(C)(C)C)C(=O)OCc1ccccc1, COCCN(C(=O)COC(=O)CC1CCCCC1)c1c(N)n(Cc2ccccc2)c(=O)[nH]c1=O is higher in “hERG current change (%, negative = inhibition) at 10uM” value: 5.49% for the first, 10.8% for the second.

First: COc1ccc(C(=O)N2CCN(CC(=O)N3CCOCC3)CC2)cc1
Second: O=C(NCc1ccccc1)c1ccc2c(=O)n3c(nc2c1)CCCCC3
The “hERG current change (%, negative = inhibition) at 10uM” value of the first is higher: -1.69% for the first, -22% for the second.

Going from CC(=O)CSc1cc(C)nc2c(-c3ccccc3)c(C)nn12 to CC1(C)Cc2ccccc2-c2nnc(SCC(=O)Nc3ccc4c(c3)OCO4)n21, the “hERG current change (%, negative = inhibition) at 10uM” value falls from 4.3% to -63.2%.

Going from CCCCC(=O)N/N=C/c1c(O)n(CCc2ccccc2)c(=O)[nH]c1=O to CCn1c(=O)c([N+](=O)[O-])c(NCC2CCCO2)c2ccccc21 (centres unmarked), the “hERG current change (%, negative = inhibition) at 10uM” value falls from 18.3% to -16.6%.

Going from COc1ccc2cc(CN(CC3CCCO3)C(=S)NCc3ccco3)c(=O)[nH]c2c1 (centres unmarked) to C/C(=N\N1CCN(C2c3ccccc3-c3ccccc32)CC1)c1ccco1, the “hERG current change (%, negative = inhibition) at 10uM” value rises from -8.85% to 13.7%.

First: CCOC(=O)N1CCC(N2CC34C=CC(O3)C(C(=O)O)C4C2=O)CC1 (centres unmarked)
Second: CCn1cc(C(=O)N[C@H](C)c2ccccc2)c(=O)c2cc(F)c(N3CCN(C)CC3)cc21
The “hERG current change (%, negative = inhibition) at 10uM” value of the first is higher: 7.72% for the first, -5.83% for the second.

Going from CCOc1ccc(N/C(N)=N/c2nc(CSc3nnc(C)s3)cc(=O)[nH]2)cc1 to COCCN(C(=O)c1snc(C(N)=O)c1N)C(C(=O)NC1CCCCC1)c1cc(OC)c(OC)c(OC)c1 (centres unmarked), the “hERG current change (%, negative = inhibition) at 10uM” value falls from 12.5% to -9.61%.
